{"source": "the supplement of paper PMC8728848", "binders": {"B1": {"name": "AAL (Agrocybe aegerita), Q6WY08 (protein)", "chain": "MQGVNIYNISAGTSVDLAAPVTTGDIVTFFSSALNLNAGAGNPNNTTLNLFAENGAYLLHIAFRLQENVIIFNSRQPDGPWLVEQRVSDVANQFAGIDGKAMVTVFDHGDKYQVVINEKTVIQYTKQISGLTLSLSYNATEETSIFSTVVEAVTYTGLALEHHHHHH"}}, "test_in_all_cases": "glycan array binding signal (z-score within array); higher = stronger binding", "settings_in_all_cases": "glycan notation: IUPAC condensed, linker removed", "key": {"[1]": {"target": "Gal(b1-3)GalNAc(b1-3)Gal(a1-4)Gal(b1-4)Glc", "outline": "(§1)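 Glycan array data came from 3228 arrays in the Consortium for Functional Glycomics database, and only arrays with an available protein sequence were kept. Glycan names were put into IUPAC-condensed notation, and columns mapping to the same glycan were averaged. The binding signal is a within-array Z-score, averaged across arrays of one protein sequence run at different concentrations or buffers and across linkers. A negative Z-score can be read as non-binding.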"}, "[2]": {"target": "Gal(b1-3)GalNAc(b1-4)Gal(b1-4)Glc", "outline": "as §1"}, "[3]": {"target": "Gal(b1-3)GalNAc(b1-4)[Neu5Ac(a2-3)]Gal(b1-4)Glc", "outline": "as §1"}, "Gal(b1-3)GlcNAc": {"target": "Gal(b1-3)GlcNAc", "outline": "as §1"}, "[4]": {"target": "Gal(b1-3)GlcNAc(a1-3)Gal(b1-4)GlcNAc", "outline": "as §1"}, "[5]": {"target": "Gal(b1-3)GlcNAc(a1-6)Gal(b1-4)GlcNAc", "outline": "as §1"}, "Gal(b1-3)GlcNAc(b1-2)Man": {"target": "Gal(b1-3)GlcNAc(b1-2)Man", "outline": "as §1"}, "[6]": {"target": "Gal(b1-3)GlcNAc(b1-2)Man(a1-3)[Gal(b1-3)GlcNAc(b1-2)Man(a1-6)]Man(b1-4)GlcNAc(b1-4)GlcNAc", "outline": "as §1"}, "[7]": {"target": "Gal(b1-3)GlcNAc(b1-2)Man(a1-3)[Gal(b1-3)GlcNAc(b1-2)Man(a1-6)]Man(b1-4)GlcNAc(b1-4)[Fuc(a1-6)]GlcNAc", "outline": "as §1"}, "[8]": {"target": "Gal(b1-3)GlcNAc(b1-2)Man(a1-3)[GlcNAc(b1-4)][Gal(b1-3)GlcNAc(b1-2)Man(a1-6)]Man(b1-4)GlcNAc(b1-4)GlcNAc", "outline": "as §1"}, "[9]": {"target": "Gal(b1-3)GlcNAc(b1-2)[Gal(b1-3)GlcNAc(b1-6)]Man(a1-6)[Gal(b1-3)GlcNAc(b1-2)Man(a1-3)]Man(b1-4)GlcNAc(b1-4)GlcNAc", "outline": "as §1"}, "[10]": {"target": "Gal(b1-3)GlcNAc(b1-3)Gal(b1-3)GlcNAc", "outline": "as §1"}, "[11]": {"target": "Gal(b1-3)GlcNAc(b1-3)Gal(b1-4)Glc", "outline": "as §1"}, "[12]": {"target": "Gal(b1-3)GlcNAc(b1-3)Gal(b1-4)GlcNAc", "outline": "as §1"}, "[13]": {"target": "Gal(b1-3)GlcNAc(b1-3)Gal(b1-4)GlcNAc(b1-2)Man(a1-3)[Gal(b1-3)GlcNAc(b1-3)Gal(b1-4)GlcNAc(b1-2)Man(a1-6)]Man(b1-4)GlcNAc(b1-4)GlcNAc", "outline": "as §1"}, "[14]": {"target": "Gal(b1-3)GlcNAc(b1-3)Gal(b1-4)GlcNAc(b1-2)[Gal(b1-3)GlcNAc(b1-3)Gal(b1-4)GlcNAc(b1-6)]Man(a1-6)[Gal(b1-3)GlcNAc(b1-3)Gal(b1-4)GlcNAc(b1-2)Man(a1-3)]Man(b1-4)GlcNAc(b1-4)[Fuc(a1-6)]GlcNAc", "outline": "as §1"}, "[15]": {"target": "Gal(b1-3)GlcNAc(b1-3)Gal(b1-4)GlcNAc(b1-3)Gal(b1-4)GlcNAc(b1-2)[Gal(b1-3)GlcNAc(b1-3)Gal(b1-4)GlcNAc(b1-3)Gal(b1-4)GlcNAc(b1-6)]Man(a1-6)[Gal(b1-3)GlcNAc(b1-3)Gal(b1-4)GlcNAc(b1-3)Gal(b1-4)GlcNAc(b1-2)Man(a1-3)]Man(b1-4)GlcNAc(b1-4)[Fuc(a1-6)]GlcNAc", "outline": "as §1"}, "[16]": {"target": "Gal(b1-3)GlcNAc(b1-3)Gal(b1-4)GlcNAc(b1-6)[Gal(b1-3)GlcNAc(b1-3)]Gal(b1-4)Glc", "outline": "as §1"}, "[17]": {"target": "Gal(b1-3)GlcNAc(b1-3)Gal(b1-4)[Fuc(a1-3)]GlcNAc", "outline": "as §1"}, "[18]": {"target": "Gal(b1-3)GlcNAc(b1-3)Gal(b1-4)[Fuc(a1-3)]GlcNAc(b1-6)[Gal(b1-3)GlcNAc(b1-3)]Gal(b1-4)Glc", "outline": "as §1"}, "[19]": {"target": "Gal(b1-3)GlcNAc(b1-3)GalNAc", "outline": "as §1"}, "[20]": {"target": "Gal(b1-3)GlcNAc(b1-6)Gal(b1-4)GlcNAc", "outline": "as §1"}, "[21]": {"target": "Gal(b1-3)GlcNAc(b1-6)GalNAc", "outline": "as §1"}, "[22]": {"target": "Gal(b1-3)GlcNAc(b1-6)[Gal(b1-3)]GalNAc", "outline": "as §1"}, "Gal(b1-3)GlcNAc6S": {"target": "Gal(b1-3)GlcNAc6S", "outline": "as §1"}, "[23]": {"target": "Gal(b1-3)[Fuc(a1-4)]GlcNAc", "outline": "as §1"}, "[24]": {"target": "Gal(b1-3)[Fuc(a1-4)]GlcNAc(b1-2)Man", "outline": "as §1"}, "[25]": {"target": "Gal(b1-3)[Fuc(a1-4)]GlcNAc(b1-2)Man(a1-3)[Gal(b1-3)[Fuc(a1-4)]GlcNAc(b1-2)Man(a1-6)]Man(b1-4)GlcNAc(b1-4)GlcNAc", "outline": "as §1"}, "[26]": {"target": "Gal(b1-3)[Fuc(a1-4)]GlcNAc(b1-2)Man(a1-3)[Gal(b1-3)[Fuc(a1-4)]GlcNAc(b1-2)Man(a1-6)]Man(b1-4)GlcNAc(b1-4)[Fuc(a1-6)]GlcNAc", "outline": "as §1"}, "[27]": {"target": "Gal(b1-3)[Fuc(a1-4)]GlcNAc(b1-3)Gal(b1-3)[Fuc(a1-4)]GlcNAc", "outline": "as §1"}, "[28]": {"target": "Gal(b1-3)[Fuc(a1-4)]GlcNAc(b1-3)Gal(b1-4)GlcNAc", "outline": "as §1"}, "[29]": {"target": "Gal(b1-3)[Fuc(a1-4)]GlcNAc(b1-3)Gal(b1-4)[Fuc(a1-3)]GlcNAc", "outline": "as §1"}, "[30]": {"target": "Gal(b1-3)[Fuc(a1-4)]GlcNAc(b1-6)GalNAc", "outline": "as §1"}, "[31]": {"target": "Gal(b1-3)[GlcNAc(b1-6)]GalNAc", "outline": "as §1"}, "[32]": {"target": "Gal(b1-3)[Neu5Ac(a2-6)]GalNAc", "outline": "as §1"}, "[33]": {"target": "Gal(b1-3)[Neu5Ac(a2-6)]GlcNAc(b1-4)Gal(b1-4)Glc", "outline": "as §1"}, "[34]": {"target": "Gal(b1-3)[Neu5Ac(a2-6)]GlcNAc(b1-6)Gal(b1-4)Glc", "outline": "as §1"}, "[35]": {"target": "Gal(b1-3)[Neu5Ac(b2-6)]GalNAc", "outline": "as §1"}, "Gal(b1-4)Gal": {"target": "Gal(b1-4)Gal", "outline": "as §1"}, "[36]": {"target": "Gal(b1-4)GalNAc(a1-3)[Fuc(a1-2)]Gal(b1-4)GlcNAc", "outline": "as §1"}, "[37]": {"target": "Gal(b1-4)GalNAc(b1-3)[Fuc(a1-2)]Gal(b1-4)GlcNAc", "outline": "as §1"}, "Gal(b1-4)Glc": {"target": "Gal(b1-4)Glc", "outline": "as §1"}, "Gal(b1-4)Glc6S": {"target": "Gal(b1-4)Glc6S", "outline": "as §1"}, "Gal(b1-4)GlcNAc": {"target": "Gal(b1-4)GlcNAc", "outline": "as §1"}, "[38]": {"target": "Gal(b1-4)GlcNAc(a1-6)Gal(b1-4)GlcNAc", "outline": "as §1"}}, "note": "The list shows a part of the results.", "data": [{"binder": "B1", "values": [{"measurement": "glycan array binding signal (z-score)", "setting": "[1]", "result": -0.141}, {"measurement": "glycan array binding signal (z-score)", "setting": "[2]", "result": -0.128}, {"measurement": "glycan array binding signal (z-score)", "setting": "[3]", "result": -0.144}, {"measurement": "glycan array binding signal (z-score)", "setting": "Gal(b1-3)GlcNAc", "result": -0.146}, {"measurement": "glycan array binding signal (z-score)", "setting": "[4]", "result": -0.142}, {"measurement": "glycan array binding signal (z-score)", "setting": "[5]", "result": -0.122}, {"measurement": "glycan array binding signal (z-score)", "setting": "Gal(b1-3)GlcNAc(b1-2)Man", "result": -0.154}, {"measurement": "glycan array binding signal (z-score)", "setting": "[6]", "result": -0.155}, {"measurement": "glycan array binding signal (z-score)", "setting": "[7]", "result": -0.133}, {"measurement": "glycan array binding signal (z-score)", "setting": "[8]", "result": -0.094}, {"measurement": "glycan array binding signal (z-score)", "setting": "[9]", "result": -0.153}, {"measurement": "glycan array binding signal (z-score)", "setting": "[10]", "result": -0.153}, {"measurement": "glycan array binding signal (z-score)", "setting": "[11]", "result": -0.127}, {"measurement": "glycan array binding signal (z-score)", "setting": "[12]", "result": -0.152}, {"measurement": "glycan array binding signal (z-score)", "setting": "[13]", "result": -0.132}, {"measurement": "glycan array binding signal (z-score)", "setting": "[14]", "result": -0.08}, {"measurement": "glycan array binding signal (z-score)", "setting": "[15]", "result": -0.097}, {"measurement": "glycan array binding signal (z-score)", "setting": "[16]", "result": -0.153}, {"measurement": "glycan array binding signal (z-score)", "setting": "[17]", "result": -0.166}, {"measurement": "glycan array binding signal (z-score)", "setting": "[18]", "result": -0.134}, {"measurement": "glycan array binding signal (z-score)", "setting": "[19]", "result": -0.149}, {"measurement": "glycan array binding signal (z-score)", "setting": "[20]", "result": -0.152}, {"measurement": "glycan array binding signal (z-score)", "setting": "[21]", "result": -0.164}, {"measurement": "glycan array binding signal (z-score)", "setting": "[22]", "result": -0.098}, {"measurement": "glycan array binding signal (z-score)", "setting": "Gal(b1-3)GlcNAc6S", "result": -0.129}, {"measurement": "glycan array binding signal (z-score)", "setting": "[23]", "result": -0.152}, {"measurement": "glycan array binding signal (z-score)", "setting": "[24]", "result": -0.11}, {"measurement": "glycan array binding signal (z-score)", "setting": "[25]", "result": -0.107}, {"measurement": "glycan array binding signal (z-score)", "setting": "[26]", "result": -0.111}, {"measurement": "glycan array binding signal (z-score)", "setting": "[27]", "result": -0.134}, {"measurement": "glycan array binding signal (z-score)", "setting": "[28]", "result": -0.133}, {"measurement": "glycan array binding signal (z-score)", "setting": "[29]", "result": -0.151}, {"measurement": "glycan array binding signal (z-score)", "setting": "[30]", "result": -0.141}, {"measurement": "glycan array binding signal (z-score)", "setting": "[31]", "result": -0.15}, {"measurement": "glycan array binding signal (z-score)", "setting": "[32]", "result": -0.159}, {"measurement": "glycan array binding signal (z-score)", "setting": "[33]", "result": -0.132}, {"measurement": "glycan array binding signal (z-score)", "setting": "[34]", "result": -0.161}, {"measurement": "glycan array binding signal (z-score)", "setting": "[35]", "result": -0.155}, {"measurement": "glycan array binding signal (z-score)", "setting": "Gal(b1-4)Gal", "result": -0.108}, {"measurement": "glycan array binding signal (z-score)", "setting": "[36]", "result": -0.146}, {"measurement": "glycan array binding signal (z-score)", "setting": "[37]", "result": -0.135}, {"measurement": "glycan array binding signal (z-score)", "setting": "Gal(b1-4)Glc", "result": -0.138}, {"measurement": "glycan array binding signal (z-score)", "setting": "Gal(b1-4)Glc6S", "result": -0.136}, {"measurement": "glycan array binding signal (z-score)", "setting": "Gal(b1-4)GlcNAc", "result": -0.15}, {"measurement": "glycan array binding signal (z-score)", "setting": "[38]", "result": -0.149}]}]}
